Source: the RNAGym collection of RNA variant scans (doi:10.7554/elife.90254)
Read counts are not given, so values of variants with three or more changes are uncertain.

B1: LINE1-mini (parent)
chain: GGCAGAGCUCAACACAGCGUGGCAAAGUGGCUGUGGCUAGACUGCC

Variants of: B1
Assay: self-cleavage, relative activity (ratio to wild type); higher = more cleavage; in vitro, sequencing; the parent is a self-cleaving ribozyme

| Variant | self-cleavage |
| --- | --- |
| A4G C13A U20A U34C A41G C46A | 0.03 |
| A4G C8G C13A | 0.03 |
| A4G C15A A41U | 0.11 |
| A4G C10G C18G U38G C46G | 0 |
| A4G C15U C18A G29C | 0.05 |
| A4G A6C C23A G36C G40U | 0.21 |
| A4C G21U A24C G40U | 0.03 |
| A4G C10A A25C U28A C46A | 0.01 |
| A4G A12U A14G | 0.06 |
| A4G A24C G30U A39U C46A | 0.03 |
| A4G C8G C13U C37G | 0 |
| A4G A26U A39C G40U | 0.05 |
| A4G A14U G19U | 0.23 |
| A4C G22C C37U | 0.04 |
| A4G A11G A25C G36A | 0.02 |
| A4G C15G A25C C46U | 0.08 |
| A4G C10A C15A U28G | 0.02 |
| A4G A12C A24G G35C G44C | 0.01 |
| A4G C18U G40C | 0.01 |
| A4G A11G G27C U43C | 0.01 |
| A4G G5C A12G | 0.12 |
| A4C U32C C45U C46G | 0.64 |
| A4G C8A G30C C37A | 0.15 |
| A4G A11C G36C A41U | 0.01 |

| Variant | self-cleavage |
| --- | --- |
| A4C U34G G35A | 0.03 |
| A4C U34G G35U | 0.1 |
| A4G C10A G19U G40A | 0.01 |
| A4G A6C G19U G30A | 0.2 |
| A4G A26U G30A | 0.99 |
| A4G C10U C15U C18U C46U | 0.04 |
| A4G A6C G27U G30U | 0.45 |
| A4C G29C C46U | 0.12 |
| A4G A16C U28C A39G | 0 |
| A4G C8G C15U G19U | 0.08 |
| A4C U38A A41C | 0.24 |
| A4G G5A G7A G19U C42U C46U | 0.11 |
| A4G A6C A41G | 1.04 |
| A4G C10U C18U G30C G40U A41C | 0.03 |
| A4G C8G C23A G40C | 0.06 |
| A4G C13U G35C U38A | 0.04 |
| A4G C8G G17A C31U G35A | 0.11 |
| A4C U20G C23G | 0.07 |
| A4G A11G C13U G30U C45G | 0.04 |
| A4G A6U G7U A11U G21U | 0.01 |
| A4G A6U C23G | 0.35 |
| A4C U9A C23U A26U | 0.29 |
| A4G C10A A12C G30U | 0.03 |
| A4G C13U G33A U38G | 0.03 |

| Variant | self-cleavage |
| --- | --- |
| A4C G21U U28G | 0.02 |
| A4G C8A G27U U32A | 0.23 |
| A4G A26U U38C | 0.11 |
| A4C G30C A39C | 0.1 |
| A4C G30C A39U | 0.03 |
| A4G A6G G33A G44U | 0.03 |
| A4G C13A G21U | 0.3 |
| A4G A12G A26G | 0.02 |
| A4G C10G A14C A16C | 0.01 |
| A4C U9C C10U C13U C15G C18U G21C | 0.01 |
| A4G G5A C15G | 0.03 |
| A4G C37A C42U | 0.38 |
| A4G A16U G33C C45A | 0.02 |
| A4C U20G G30A G35C | 0.07 |
| A4G C15G G40U | 0.05 |
| A4G A14G C37U | 0.06 |
| A4G A14U C18A G21A G30U | 0.14 |
| A4C G30C G35A | 0.05 |
| A4G C37A C45U | 0.03 |
| A4G A6G C18A G27A C31U C37U U38C | 0.01 |
| A4G A14G A16G U28G A41C | 0.01 |
| A4G C10U G36A G44A | 0.07 |
| A4G A12C A24G U38C | 0.15 |
| A4C G21U A41U U43A | 0.01 |

| Variant | self-cleavage |
| --- | --- |
| A4C G35U C45A C46U | 0.03 |
| A4G A6G C8U C45A | 0.17 |
| A4G A11U U38G A41C | 0.01 |
| A4G A11G G19A C23U U43A | 0.04 |
| A4G A11C G27A | 0.02 |
| A4G A24G C31U | 0.03 |
| A4G C10A C31U G40U | 0 |
| A4G C13U A24G G33U | 0.08 |
| A4C U34C G44C C45G | 0.01 |
| A4G A14C C15G A16C G17A | 0.07 |
| A4G C18A G29U | 0.3 |
| A4G C13G G29U C37U G44A | 0.02 |
| A4G C10A A12G U28A | 0.06 |
| A4G C8G C18G G30U A39C | 0.06 |
| A4C G21U A26C G36U C42G | 0.02 |
| A4G C10U A12C C15G G17U G19U | 0.02 |
| A4C G22U A41C | 0.02 |
| A4G G5A C8A C37G | 0.2 |
| A4G C13A G27U C37U | 0.08 |
| A4G A14G U43A | 0.04 |
| A4C U9A C13U A14G C42A | 0.02 |
| A4G C8A C10A | 0.01 |
| A4C G36U U38G | 0.01 |
| A4G A12U G36A C45A | 0.14 |

| Variant | self-cleavage |
| --- | --- |
| A4G C8U A25C G30A G35A C42G | 0.23 |
| A4C G30A C46U | 0.03 |
| A4C U9C G36A C45U | 0.09 |
| A4G A11G G29U G30A C37U | 0.03 |
| A4C U9C G30C C37A C45U | 0.84 |
| A4C U9A C23A | 0.08 |
| A4G C10G G36U | 0.01 |
| A4G C10U C15U G29A | 0.2 |
| A4G C37G A39C C46U | 0.04 |
| A4C G29A C31A | 0.07 |
| A4C U9A A25U A39G | 0.08 |
| A4G C10A A12C C15U G30A | 0 |
| A4C U9G G44A | 0.11 |
| A4G C13A G22C A25G G27C C37U A39C | 0 |
| A4G C8A C10G G22A | 0.02 |
| A4G C23G U43A | 0.45 |
| A4G A14U C15G G21C C23A | 0.14 |
| A4G A14C A16U G17C U32C | 0.02 |
| A4G A6C G7C C15G | 0.18 |
| A4G C23A C31U G44A C46G | 0.13 |
| A4G A16U U38G | 0.1 |
| A4C U34A A41G | 0.04 |
| A4G C18G C45G | 0.04 |
| A4G C13G U20C | 0.44 |

| Variant | self-cleavage |
| --- | --- |
| A4G A12G A24C C42A C45U C46U | 0.05 |
| A4G A14C G33U | 0.28 |
| A4G A39G G40U C46G | 0.35 |
| A4G A16C G21C G36C | 0.05 |
| A4G A11C G22C G30A G36U U43C G44U C45A | 0 |
| A4G C8U G33C U38G A41U | 0.1 |
| A4G C8A C10G C46A | 0 |
| A4C G35C C45A | 0.05 |
| A4G A11G G22C U34C A39C | 0.04 |
| A4G C10A C18A U32C A41U | 0 |
| A4G A6U C8U G19A | 0.21 |
| A4G C10G G17U G30U G36A | 0.01 |
| A4G C8A G17C A24G | 0.08 |
| A4C G22A G40A C46U | 0.24 |
| A4C G33U U38A | 0.06 |
| A4G C18U C31A G33A C42U U43G | 0.02 |
| A4C U9A G21A G36A A39U A41G | 0.02 |
| A4G C10U U28C G30A U43C | 0.16 |
| A4G A14C U34C | 0.07 |
| A4G A14G A25C G40A C45A | 0.03 |
| A4G G5C A24C G36C | 0.05 |
| A4G C23G C42G | 0.14 |
| A4G A24U G27U | 0.34 |
| A4G C8U C18G G22A C31U | 0.05 |

| Variant | self-cleavage |
| --- | --- |
| A4G C8U U34A | 0.04 |
| A4G C8U C46G | 0.33 |
| A4G A6U G7U C8G U20G G35U C42A | 0.18 |
| A4G A12U C18A | 0.03 |
| A4G A12G G22U G33A G44U | 0.03 |
| A4C U9A A26G | 0.06 |
| A4G A6G C8A G19U G30U | 0.06 |
| A4G C8A A12C A41C C45A | 0.03 |
| A4G G5A C10U C37A | 0.03 |
| A4G C8G C10A G22U C23U A24G | 0.01 |
| A4G G5C C42U | 0.02 |
| A4G A11G G19U | 0.04 |
| A4C G30U G33A | 0.08 |
| A4C U32G C46U | 0.03 |
| A4G A12C C13A G33C | 0.02 |
| A4G C10A C13U | 0.03 |
| A4G C10A A14U A16U C18A | 0.02 |
| A4G C18A G19C | 0.03 |
| A4G C10A C15A G27A | 0.08 |
| A4C U9C A14C G22C C45U | 0.05 |
| A4C U9C U28C | 0.01 |
| A4G C23A G27C G36C U38C | 0.02 |
| A4G A25G U38A G40A C46U | 0.02 |
